Data: patent US20250381289A1 (Genmab, published 2025)

B1: Bsab 52 WT (bispecific antibody, human IgG1, kappa)
chain 1: AIQLTQSPSSLSASVGDRVTITCRASQDISSALVWYQQKPGKAPKLLIYDASSLESGVPSRFSGSESGTDFTLTISSLQPEDFATYYCQQFNSYPLTFGGGTKVEIKRTVAAPSVFIFPPSDEQLKSGTASVVCLLNNFYPREAKVQWKVDNALQSGNSQESVTEQDSKDSTYSLSSTLTLSKADYEKHKVYACEVTHQGLSSPVTKSFNRGECGGGGSGGGGSGGGGSGGGGSGGGGSGGGGSGGGGSGGGGSQVQLVESGGGVVQPGRSLRLSCAASGFTFSTYGMHWVRQAPGKGLEWVAVIWDDGSYKYYGDSVKGRFTISRDNSKNTLYLQMNSLRAEDTAVYYCARDGITMVRGVMKDYFDYWGQGTLVTVSS[omitted - human IgG1 constant region with changes]
chain 2: DIQMTQSPSSVSASVGDRVTITCRASQGISNWLAWFQHKPGKAPKLLIYAASSLLSGVPSRFSGSGSGTDFTLTISSLQPEDFATYYCQQANSFPITFGQGTRLEIKRTVAAPSVFIFPPSDEQLKSGTASVVCLLNNFYPREAKVQWKVDNALQSGNSQESVTEQDSKDSTYSLSSTLTLSKADYEKHKVYACEVTHQGLSSPVTKSFNRGECGGGGSGGGGSGGGGSGGGGSGGGGSGGGGSGGGGSGGGGSQVQLVQSGAEVKKPGASVKVSCETSGYTFTSYGISWVRQAPGHGLEWMGWISAYNGYTNYAQKLQGRVTMTTDTSTSTAYMELRSLRSDDTAVYYCARDLRGTNYFDYWGQGTLVTVSSASTKGPSVFPLAPSSKSTSGGTAALGCLVKDYFPEPVTVSWNSGALTSGVHTFPAVLQSSGLYSLSSVVTVPSSSLGTQTYICNVNHKPSNTKVDKKV[omitted - human IgG1 Fc with S354C T366S L368A Y407V (EU numbers)]
notes: also called Basb 52 WT
B2: Bsab 43 (bispecific antibody, human IgG1, kappa)
anti EGFR knob chain (scFab): DIQMTQSPSSLSASVGDRVTITCRSSQNIVHSNGNTYLDWYQQTPGKAPKLLIYKVSNRFSGVPSRFSGSGSGTDFTFTISSLQPEDIATYYCFQYSHVPWTFGQGTKLQITRTVAAPSVFIFPPSDEQLKSGTASVVCLLNNFYPREAKVQWKVDNALQSGNSQESVTEQDSKDSTYSLSSTLTLSKADYEKHKVYACEVTHQGLSSPVTKSFNRGECGGGGSGGGGSGGGGSGGGGSGGGGSGGGGSGGGGSGGGGSQVQLQQSGAEVKKPGSSVKVSCKASGYTFTNYYIYWVRQAPGQGLEWIGGINPTSGGSNFNEKFKTRVTITADESSTTAYMELSSLRSEDTAFYFCTRQGLWFDSDGRGFDFWGQGTTVTVSS[omitted - human IgG1 constant region with changes]
anti cMET hole chain (scFab): DIVMTQSPDSLAVSLGERATINCKSSESVDSYANSFLHWYQQKPGQPPKLLIYRASTRESGVPDRFSGSGSGTDFTLTISSLQAEDVAVYYCQQSKEDPLTFGGGTKVEIKRTVAAPSVFIFPPSDEQLKSGTASVVCLLNNFYPREAKVQWKVDNALQSGNSQESVTEQDSKDSTYSLSSTLTLSKADYEKHKVYACEVTHQGLSSPVTKSFNRGECGGGGSGGGGSGGGGSGGGGSGGGGSGGGGSGGGGSGGGGSQVQLVQSGAEVKKPGASVKVSCKASGYIFTAYTMHWVRQAPGQGLEWMGWIKPNNGLANYAQKFQGRVTMTRDTSISTAYMELSRLRSDDTAVYYCARSEITTEFDYWGQGTLVTVSSASTKGPSVFPLAPSSKSTSGGTAALGCLVKDYFPEPVTVSWNSGALTSGVHTFPAVLQSSGLYSLSSVVTVPSSSLGTQTYICNVNHKPSNTKVDKKVEPKSCDKTHTCPPCPAPEAAGGPSVFLFPPKPKDTLMISRTPEVTCVVVDVSHEDPEVKFNWYVDGVEVHNAKTKPREEQYNSTYRVVSVLTVLHQDWLNGKEYKCKVSNKALPAPIEKTISKAKGQPREPQVYTLPPCRDELTKNQVSLSCAVKGFYPSDIAVEWESNGQPENNYKTTPPVLDSDGSFFLVSKLTVDKSRWQQGNVFSCSVMHEALHNHYTQKSLSLSPGK

Assays:
[1] = target: T1, EGFR on EGFR and cMET co-expressed tumor cell lines (UniProt P00533); test: flow cytometry, MKN-45 cells (co-express EGFR and cMET; both arms contribute)
T1 construct: whole, on cells

[2] = target: T2, cMET on EGFR and cMET co-expressed tumor cell lines (UniProt P08581); test: as above
T2 construct: whole, on cells

[3] = target: T1, EGFR on EGFR and cMET co-expressed …; test: flow cytometry, EBC-1 cells (co-express EGFR and cMET; both arms contribute)
[4] = target: T2, cMET on EGFR and cMET co-expressed …; test: as above

T2 sequence (P08581 25-1390 limits assumed): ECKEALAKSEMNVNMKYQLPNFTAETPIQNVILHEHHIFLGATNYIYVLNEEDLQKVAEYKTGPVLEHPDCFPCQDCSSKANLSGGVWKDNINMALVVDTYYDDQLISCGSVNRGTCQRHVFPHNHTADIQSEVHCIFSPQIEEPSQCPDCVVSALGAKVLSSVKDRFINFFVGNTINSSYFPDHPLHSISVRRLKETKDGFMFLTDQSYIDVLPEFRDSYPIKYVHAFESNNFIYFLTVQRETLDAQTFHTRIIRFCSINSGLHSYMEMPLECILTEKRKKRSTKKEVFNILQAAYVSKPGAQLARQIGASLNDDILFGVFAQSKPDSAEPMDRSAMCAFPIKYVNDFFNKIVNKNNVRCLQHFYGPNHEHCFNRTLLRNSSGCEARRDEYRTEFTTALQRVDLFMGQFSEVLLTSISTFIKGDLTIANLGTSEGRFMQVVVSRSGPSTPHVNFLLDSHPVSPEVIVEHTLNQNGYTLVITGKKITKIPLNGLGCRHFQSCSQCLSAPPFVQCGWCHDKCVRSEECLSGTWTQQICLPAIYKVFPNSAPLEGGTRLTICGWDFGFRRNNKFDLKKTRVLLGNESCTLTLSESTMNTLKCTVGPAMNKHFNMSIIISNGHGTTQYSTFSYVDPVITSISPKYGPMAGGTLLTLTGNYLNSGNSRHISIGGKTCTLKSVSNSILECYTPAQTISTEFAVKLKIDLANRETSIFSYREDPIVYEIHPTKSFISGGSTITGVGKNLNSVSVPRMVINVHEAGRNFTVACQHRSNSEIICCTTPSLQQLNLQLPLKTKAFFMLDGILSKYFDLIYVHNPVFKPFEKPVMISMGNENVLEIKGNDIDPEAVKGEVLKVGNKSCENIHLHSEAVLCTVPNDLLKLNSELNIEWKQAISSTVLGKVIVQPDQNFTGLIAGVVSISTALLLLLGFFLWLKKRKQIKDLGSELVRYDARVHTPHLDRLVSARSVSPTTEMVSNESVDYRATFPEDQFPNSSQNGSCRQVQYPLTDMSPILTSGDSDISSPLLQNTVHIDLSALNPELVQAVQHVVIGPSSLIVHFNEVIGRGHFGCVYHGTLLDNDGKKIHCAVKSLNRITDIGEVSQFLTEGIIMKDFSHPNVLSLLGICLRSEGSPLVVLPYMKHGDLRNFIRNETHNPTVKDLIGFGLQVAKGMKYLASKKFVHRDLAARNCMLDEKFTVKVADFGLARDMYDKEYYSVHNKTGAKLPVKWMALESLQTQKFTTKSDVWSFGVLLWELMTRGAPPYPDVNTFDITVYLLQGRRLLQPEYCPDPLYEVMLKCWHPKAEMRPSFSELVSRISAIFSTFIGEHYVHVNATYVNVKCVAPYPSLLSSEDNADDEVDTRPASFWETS

Binder	EC50 (read off the curve) [1] [nM]	EC50 (read off the curve) [2] [nM]	EC50 (read off the curve) [3] [nM]	EC50 (read off the curve) [4] [nM]
B1	~1	~1		
B2			~2	~2
